{"source": "paper PMC4336329", "about": "(PLoS ONE, 2015)", "note": "Out of some 310,000 compounds screened, about 2,200 (0.71%) showed an effect of 50% or more. Effects have a minus sign here. The list shows a part of the results.", "data": [{"target": "human ether-à-go-go-related gene (hERG) potassium channel (human, UniProt Q12809)", "sequence (Q12809 whole entry, looked up)": "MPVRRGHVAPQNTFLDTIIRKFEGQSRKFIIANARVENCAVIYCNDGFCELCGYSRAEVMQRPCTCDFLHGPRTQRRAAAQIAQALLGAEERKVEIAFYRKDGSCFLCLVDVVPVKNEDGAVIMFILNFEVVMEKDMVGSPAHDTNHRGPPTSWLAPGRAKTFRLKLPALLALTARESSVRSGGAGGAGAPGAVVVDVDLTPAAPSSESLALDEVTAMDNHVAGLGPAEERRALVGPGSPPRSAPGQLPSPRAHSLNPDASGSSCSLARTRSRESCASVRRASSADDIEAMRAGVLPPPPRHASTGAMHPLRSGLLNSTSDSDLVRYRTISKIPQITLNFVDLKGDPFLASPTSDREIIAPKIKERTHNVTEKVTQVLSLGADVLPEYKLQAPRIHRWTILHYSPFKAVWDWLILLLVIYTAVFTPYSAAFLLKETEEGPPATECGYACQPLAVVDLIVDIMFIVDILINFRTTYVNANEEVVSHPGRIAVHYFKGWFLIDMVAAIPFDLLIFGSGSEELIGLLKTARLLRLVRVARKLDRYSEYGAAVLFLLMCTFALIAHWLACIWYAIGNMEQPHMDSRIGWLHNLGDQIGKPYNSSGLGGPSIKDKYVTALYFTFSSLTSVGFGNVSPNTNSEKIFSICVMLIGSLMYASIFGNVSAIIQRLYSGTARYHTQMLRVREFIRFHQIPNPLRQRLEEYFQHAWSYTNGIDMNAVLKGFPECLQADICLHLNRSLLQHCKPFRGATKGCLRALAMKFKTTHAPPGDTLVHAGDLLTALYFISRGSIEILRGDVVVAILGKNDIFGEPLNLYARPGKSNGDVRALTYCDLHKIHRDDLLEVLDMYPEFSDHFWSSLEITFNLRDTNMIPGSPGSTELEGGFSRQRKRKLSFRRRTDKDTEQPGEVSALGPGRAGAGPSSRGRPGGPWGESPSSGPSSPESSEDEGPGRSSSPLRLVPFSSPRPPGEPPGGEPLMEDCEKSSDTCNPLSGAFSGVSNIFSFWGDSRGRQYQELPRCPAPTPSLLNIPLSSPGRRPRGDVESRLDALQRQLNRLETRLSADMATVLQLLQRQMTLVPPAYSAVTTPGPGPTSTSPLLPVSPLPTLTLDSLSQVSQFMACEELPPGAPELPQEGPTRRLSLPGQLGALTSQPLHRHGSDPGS", "assay": "primary screen, population patch clamp on CHO cells stably expressing hERG", "units": {"hERG current change (%, negative = inhibition) at 1uM": "%"}, "values": [{"smiles": "COC(=O)Cn1c(C(O)c2ccccc2)nc2ccccc21", "note": "(stereo not shown)", "hERG current change (%, negative = inhibition) at 1uM": 13.1}, {"smiles": "Cc1cc(NC(=O)CSc2nc3ccccc3n2CC(=O)N2CCC(C)CC2)no1", "hERG current change (%, negative = inhibition) at 1uM": 7.37}, {"smiles": "Cc1cccc(C)c1NC(=O)CSc1nnc(-c2ccncc2)n1Cc1ccco1", "hERG current change (%, negative = inhibition) at 1uM": -22.5}, {"smiles": "O=C(CCC(=O)c1cccs1)Nc1ncccc1O", "hERG current change (%, negative = inhibition) at 1uM": 13.1}, {"smiles": "O=C(CCc1ccccc1)N/N=C/c1cccc([N+](=O)[O-])c1", "hERG current change (%, negative = inhibition) at 1uM": 4.35}, {"smiles": "COc1ccccc1CNC(=O)c1cc(-c2ccccc2C)n(CC2CC(c3cccc([N+](=O)[O-])c3)=NO2)n1", "note": "(stereo not shown)", "hERG current change (%, negative = inhibition) at 1uM": 14.1}, {"smiles": "Nc1nnc(SCc2ccccc2F)s1", "hERG current change (%, negative = inhibition) at 1uM": 6.49}, {"smiles": "COc1c(-c2ccc(O)c(O)c2)oc2cc(O)cc(O)c2c1=O", "hERG current change (%, negative = inhibition) at 1uM": 7.9}, {"smiles": "C=CCOc1cccc(C2C(C(=O)c3cc4ccccc4o3)=C(O)C(=O)N2c2cc(C)on2)c1", "note": "(stereo not shown)", "hERG current change (%, negative = inhibition) at 1uM": 19}, {"smiles": "CCn1c(C)c(C(=O)O)c2cc(OC)c3ccccc3c21", "hERG current change (%, negative = inhibition) at 1uM": 10.7}, {"smiles": "O=C(O)CCCC(=O)N1CCN(c2ncccn2)CC1", "hERG current change (%, negative = inhibition) at 1uM": 20}, {"smiles": "Cc1cc([N+](=O)[O-])nn1CC(=O)N1CCOCC1", "hERG current change (%, negative = inhibition) at 1uM": -3.55}, {"smiles": "COc1ccc(C(=O)CCC(=O)NC2=NCCS2)cc1", "hERG current change (%, negative = inhibition) at 1uM": 11.7}, {"smiles": "CC(C)(C)c1nnc(N/N=C/c2ccc(O)cc2)n(N)c1=O", "hERG current change (%, negative = inhibition) at 1uM": 6.09}, {"smiles": "COc1ccc(C(=O)CN2C(=O)c3ccccc3S2(=O)=O)cc1", "hERG current change (%, negative = inhibition) at 1uM": 11.5}, {"smiles": "O=C1CSC(=S)N1Cc1cccnc1", "hERG current change (%, negative = inhibition) at 1uM": -0.687}, {"smiles": "Cc1cc(NC(=O)c2ccc(Br)c([N+](=O)[O-])c2)no1", "hERG current change (%, negative = inhibition) at 1uM": 14}, {"smiles": "COc1ccc(F)cc1CN1CCN(C(=O)CCC(=O)Nc2nnc(C(C)C)s2)CC1", "hERG current change (%, negative = inhibition) at 1uM": 5.87}, {"smiles": "CCCOC(=O)C1=C(C)NC2=C(C(=O)CCC2)C1c1cc(OC)ccc1OC", "note": "(stereo not shown)", "hERG current change (%, negative = inhibition) at 1uM": 10.6}, {"smiles": "O=C(CCNC(=O)c1ccc(Br)cc1)Nc1cccc(S(=O)(=O)N2CCCCCC2)c1", "hERG current change (%, negative = inhibition) at 1uM": 11.9}, {"smiles": "CN(CC(=O)Nc1ccc(N2CCOCC2)cc1)C(=O)c1cn(-c2ccccc2)nc1-c1ccccc1", "hERG current change (%, negative = inhibition) at 1uM": 11.4}, {"smiles": "COc1ccc(CNC(=S)NCc2ccc(F)cc2)cc1", "hERG current change (%, negative = inhibition) at 1uM": 3.37}, {"smiles": "CC1CCCCC12NC(=O)N(CC(=O)Nc1cccnc1Cl)C2=O", "note": "(stereo not shown)", "hERG current change (%, negative = inhibition) at 1uM": 6.41}, {"smiles": "Cc1cc(C)n(-c2nc3ccccc3nc2N2CCN(C(=O)c3ccc(F)cc3)CC2)n1", "hERG current change (%, negative = inhibition) at 1uM": -0.0294}, {"smiles": "COC(=O)c1nn(-c2nc(-c3cccc(OC)c3)cc(C(F)(F)F)n2)cc1[N+](=O)[O-]", "hERG current change (%, negative = inhibition) at 1uM": 8.5}, {"smiles": "COc1cc(CNCc2cc(OC)c(OC)c(OC)c2)cc(OC)c1.O=C(O)C(=O)O", "hERG current change (%, negative = inhibition) at 1uM": 12.6}, {"smiles": "O=C(Oc1ccc2ccc(O)cc2c1)C1CCCCC1", "hERG current change (%, negative = inhibition) at 1uM": 10.7}, {"smiles": "CC(=O)Nc1ccc(NC(=O)C(C)N(C)CC(=O)Nc2ccccc2Br)cc1", "note": "(stereo not shown)", "hERG current change (%, negative = inhibition) at 1uM": 7.25}, {"smiles": "O=C(Cn1c(=O)oc2cc(S(=O)(=O)N3CCCC3)ccc21)N1CCN(C2CCCCC2)CC1", "hERG current change (%, negative = inhibition) at 1uM": 3.22}, {"smiles": "S=c1[nH]nc(-c2ccc(Br)cc2)n1-c1ccc(Br)cc1", "hERG current change (%, negative = inhibition) at 1uM": 9.52}, {"smiles": "Cc1cc(C)cc(N(CC(=O)NC2CCCCC2)C(=O)CCCC(=O)Nc2ccccn2)c1", "hERG current change (%, negative = inhibition) at 1uM": 12}, {"smiles": "Cc1cc(C)n2c(SCc3ccccc3Cl)nnc2n1", "hERG current change (%, negative = inhibition) at 1uM": 13.5}, {"smiles": "CSc1nc(C)cc(-n2ccc(=O)[nH]c2=O)n1", "hERG current change (%, negative = inhibition) at 1uM": 11.8}, {"smiles": "CC1CC2(O)c3no[n+]([O-])c3CCC2N1O", "note": "(stereo not shown)", "hERG current change (%, negative = inhibition) at 1uM": 9.14}, {"smiles": "CSc1ncc(CN2CCc3c([nH]c4ccccc34)C2C(C)(C)C)cn1", "note": "(stereo not shown)", "hERG current change (%, negative = inhibition) at 1uM": 13.5}, {"smiles": "O=C(C1COc2ccccc2O1)N1CCOCC1", "note": "(stereo not shown)", "hERG current change (%, negative = inhibition) at 1uM": 13.6}, {"smiles": "NNC(=S)Nc1c(F)cc(F)cc1Br", "hERG current change (%, negative = inhibition) at 1uM": 13.1}, {"smiles": "COc1ccc(NCC(=O)N/N=C/c2ccc3c(c2)OCCO3)cc1", "hERG current change (%, negative = inhibition) at 1uM": 9.38}, {"smiles": "Cn1c(SCC(=O)Nc2ccc(C(N)=O)cc2)nnc1-c1cccs1", "hERG current change (%, negative = inhibition) at 1uM": 22.8}, {"smiles": "COc1ccc(N2CCN(C3CCCN(Cc4ccc(F)cc4Cl)C3)CC2)cc1", "note": "(stereo not shown)", "hERG current change (%, negative = inhibition) at 1uM": -3.12}, {"smiles": "Cc1c(Cl)c(=O)n2c(=O)c(Cl)c(C)n12", "hERG current change (%, negative = inhibition) at 1uM": 10.7}, {"smiles": "CC(C)c1cccc(C(C)C)c1NC(=O)CNCC(O)c1ccccc1.O=C(O)C(=O)O", "note": "(stereo not shown)", "hERG current change (%, negative = inhibition) at 1uM": 10.1}, {"smiles": "Cc1cn(CCC(=O)Nc2ccccc2N2CCOCC2)c2ccccc12", "hERG current change (%, negative = inhibition) at 1uM": 13.7}, {"smiles": "COc1ccc(C(=O)Nc2cc(C)nn2-c2cccc(F)c2)cc1OC", "hERG current change (%, negative = inhibition) at 1uM": 11.5}, {"smiles": "Cc1ccc(S(=O)(=O)NCC(=O)N2CCOCCOCCOCCOCC2)cc1", "hERG current change (%, negative = inhibition) at 1uM": 21.6}, {"smiles": "O=C(CCC(=O)N1CCOc2ccccc21)NCCc1ccccc1", "hERG current change (%, negative = inhibition) at 1uM": 9.06}, {"smiles": "CCC(=O)Nc1ccc(N2CCCCC2)c(C(=O)Nc2ccc(OC)cc2)c1", "hERG current change (%, negative = inhibition) at 1uM": 16.6}, {"smiles": "COc1ccc2nc(NC(=O)CSc3nc(C)cc(=O)[nH]3)sc2c1", "hERG current change (%, negative = inhibition) at 1uM": 17.2}, {"smiles": "CC1Oc2ccccc2N(CC(=O)Nc2ccc3c(c2)OCCO3)C1=O", "note": "(stereo not shown)", "hERG current change (%, negative = inhibition) at 1uM": 0.733}, {"smiles": "CS(=O)(=O)N1CCN(C2CCN(Cc3ccccc3)CC2)CC1", "hERG current change (%, negative = inhibition) at 1uM": 7.88}, {"smiles": "c1ccc(Oc2cnc3ccccc3n2)cc1", "hERG current change (%, negative = inhibition) at 1uM": -2.46}, {"smiles": "CCN(CC)c1nc(C(F)(F)F)nc2c1nnn2Cc1ccccc1", "hERG current change (%, negative = inhibition) at 1uM": 16.9}, {"smiles": "Cc1c(NCc2nc3ccccc3[nH]2)c(=O)n(-c2ccccc2)n1C.Cl", "hERG current change (%, negative = inhibition) at 1uM": 5.74}, {"smiles": "CN(CC(=O)Nc1ccc(F)cc1)C(=O)CCc1nc2ccccc2c(=O)[nH]1", "hERG current change (%, negative = inhibition) at 1uM": 14.4}, {"smiles": "O=c1ccc(S(=O)(=O)N2CCCC2)cn1Cc1ccc(F)cc1", "hERG current change (%, negative = inhibition) at 1uM": 9.78}, {"smiles": "O=C(Nc1ccccc1[N+](=O)[O-])c1cc(S(=O)(=O)N2CCOCC2)cs1", "hERG current change (%, negative = inhibition) at 1uM": 11.1}, {"smiles": "COc1ccc(N(CC(=O)O)S(=O)(=O)c2ccccc2[N+](=O)[O-])c(OC)c1", "hERG current change (%, negative = inhibition) at 1uM": 11}, {"smiles": "COc1ccc(C(=O)c2coc(-c3ccccc3C(=O)O)c2C(=O)O)cc1", "hERG current change (%, negative = inhibition) at 1uM": 4.92}]}]}
